In the supplement of paper PMC10126150:
Values marked as one replicate rest on one cluster of the flow cell; about a third of the high ones do not repeat.

Test system: ATP
Test: switch fluorescence ratio, 500 uM ATP over buffer (Cy3 cluster intensity, sum of 5 cycles each) (fold (ratio)); higher = stronger signal-on switching upon ATP binding; sequences stand for … in TCGTCGGCAGCGTCAGATGTGTATAAGAGACAGTTTTTTTTTTTTTTTTTTTTTTTTT…TC
Settings: aptamer strand: ATP DNA aptamer (quencher-CACCTGGGGGAGTATTGCGGAGGAAGG + anchor), 100 nM annealed; ATP concentration: 500 uM; one replicate
Outline: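 The fluorescence ratio divides summed target-cycle Cy3 intensity by summed buffer-cycle Cy3 intensity for each cluster and is averaged per switch-domain sequence. Cy3-labelled switching-strand clusters on a modified Illumina MiSeq flow-cell were annealed to 100 nM quencher-labelled ATP aptamer, then imaged in selection buffer and again after 15 min with 500 uM ATP at 22 °C. Five such cycles were run, with NaOH stripping and re-annealing between them, and clusters outside 100-1000 RFU were excluded.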
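Also: ATP exposure 15 min at 22 °C before imaging.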

Row | Sequence | switch fluorescence ratio
1 | ACTTCTCGGA | 1.01
2 | TCAACATGCT | 1
3 | GCTGGTGCCG | 0.995
4 | CCGCCTGATA | 1.88
5 | TCCCTTCTGA | 1.07
6 | GGCACCTAAG | 1.02
7 | TCACTCTGGC | 0.942
8 | CAGAGGATT | 0.969
9 | GCAGATAGGC | 1.02
10 | AGCAACGTCA | 1.03
11 | AATTCTGTGC | 1.12
12 | GTGTATGTAT | 1.03
13 | CTGTGGACGC | 1.06
14 | TGCCCCCCC | 2.35
15 | AAACGTAAGG | 1.02
16 | AATATATGCT | 0.97
17 | CGGCGGATGC | 1.12
18 | GCTTTAAACA | 1
19 | TGCTTCATGC | 1.03
20 | GTGCGAGAGG | 1.03
21 | CTCTTACTGC | 1.05
22 | ACTTCTGTGT | 1.03
23 | AAACGCACG | 1.4
24 | CTGCTCCATG | 1.03
25 | GTGGGTCGGA | 1.01
26 | AAAGTGGAAA | 0.975

Row | Sequence | switch fluorescence ratio
27 | CTTTTTTATG | 1.01
28 | TCTGGTCTGT | 1.01
29 | GCCTGCTTGT | 1.03
30 | CCTTACTAGG | 1.04
31 | CCTATGGGCT | 0.992
32 | AATCCGGTGG | 0.946
33 | TGGCAAAAGG | 1.04
34 | TAACAAGGGG | 0.983
35 | GCCGTCCACT | 0.987
36 | CGCAGGACCT | 1.44
37 | TTAGAATTTT | 1.03
38 | GATACTCGAC | 1.45
39 | TCTGGAGGGA | 2.23
40 | CTTTATGGG | 0.974
41 | TTTAAAATGC | 1.71
42 | CTCCCCAATT | 3.35
43 | CCCCATCGCT | 1.06
44 | CCCCGGCGCA | 2.08
45 | ATGCCAC | 1.04
46 | AGAGGACCAG | 0.975
47 | TTGGTGTTTC | 0.936
48 | ACTTAGATCA | 1.09
49 | GACCGTAGTT | 1.09
50 | AGCGCGCGAT | 1.02
51 | TTGAGTTGCA | 0.962
52 | CCACTTGGGG | 1.05

Row | Sequence | switch fluorescence ratio
53 | GAGTACCCGT | 0.989
54 | AGCGCGTAAG | 1.02
55 | TGGTGCGTCC | 1.03
56 | TCAGATCGTT | 0.995
57 | CTAAGCGAGC | 0.999
58 | AATTTTATCA | 1.05
59 | TCTGAGGATA | 1.08
60 | CGTTTAACTT | 1.01
61 | GAATGTTTCT | 0.991
62 | CGACTTCATC | 1.09
63 | CGGGGCTATC | 1.21
64 | GGGGTTTACC | 0.999
65 | CTTTTAGTCG | 0.993
66 | CGCCGGTG | 1.08
67 | AATCTAATGG | 1
68 | AATAGTGCGT | 0.984
69 | AGGGACCTTT | 0.988
70 | TTGCAGGCTA | 1.02
71 | ACCTAGTCTT | 1.06
72 | GAAAGAATGT | 0.994
73 | AGCTAGTATT | 0.983
74 | AGAAAGATT | 0.998
75 | TCAACGATCC | 1.09
76 | ACAGAAACAT | 1.16
77 | GTTTCCTTAG | 0.973
78 | GCTTGTTTCC | 0.988

Row | Sequence | switch fluorescence ratio
79 | AGTGGACCCC | 1.01
80 | CGTCGAGCCA | 0.965
81 | TGAGGGGCAT | 1.02
82 | TGAGGTAAAG | 0.965
83 | AACGTAATCT | 1.28
84 | GGTCAATGGC | 1.09
85 | ATTTGTGGG | 0.97
86 | GTTACAGTTG | 0.992
87 | CCCTGAGCCG | 0.975
88 | GTTTACCCGT | 1.01
89 | TTGTTAAGTA | 0.996
90 | AGTCACATTG | 0.984
91 | TTGTGGTTTT | 0.993
92 | TTGATTAAAC | 1.01
93 | CATCCTCAGT | 1.4
94 | TTCGGCTTAA | 1.8
95 | AGGGTTAATA | 1.01
96 | TAAGAGTCGA | 1.02
97 | GCAAATTAGT | 1.01
98 | AACTAAATTA | 1.03
99 | AAGGGACTTA | 1.01
100 | CTGGTACATA | 1.05
101 | TACCTGACTC | 2.67
102 | AAGGGTGAAT | 0.989
103 | ACCAATTTG | 1.03
104 | CAGGAGGTGT | 1.06

Row | Sequence | switch fluorescence ratio
105 | TGTTTTTGCC | 1.07
106 | CTATAGTTTG | 0.973
107 | TGCAGTAGGC | 1.04
108 | GCGCCGGCTT | 1.04
109 | TTCGAGAGAT | 0.998
110 | GAGCTCCTTT | 0.992
111 | GACGGCAGCA | 1.15
112 | ATCAGTACGG | 1.04
113 | AGGTCCTCGG | 0.956
114 | GATCGGGCGC | 1.06
115 | CAGTTTTAGA | 0.967
116 | TCGCGATTG | 1.02
117 | CGATATTTTG | 0.948
118 | AACGGAGGA | 0.974
119 | TCTGCGTGGG | 1.05
120 | TTTGTCAGT | 1.04
121 | GGAAAAAGTA | 1.01
122 | GTTTGAGATC | 1
123 | AACTCTTCAG | 0.97
124 | GGCTAGGTTC | 0.952
125 | TATCGTAAAC | 1.07
126 | ATTGGGCCTA | 1.01
127 | GGCCCCCGAC | 1.03
128 | GGTCGTTTCT | 0.977
129 | TTAGGCAGAG | 1.08
130 | TTGAGGTATT | 0.995

Row | Sequence | switch fluorescence ratio
131 | CGCCATAAGT | 0.976
132 | GTAGGGGAAA | 1.06
133 | CTGAGTTTA | 0.993
134 | TCCAGGCA | 1.04
135 | TGTCGTTCTG | 1.01
136 | AAACTATGCC | 1.06
137 | TAACGTCCCG | 1.04
138 | TGTACTCAGC | 1.11
139 | GACCATTTT | 1.04
140 | GCCGCTTCTA | 1.05
141 | CTTTACGCGG | 0.98
142 | ATTTGCTTTG | 1
143 | TAATGTTAGG | 0.971
144 | ACCTCGTCA | 1.06
145 | TCGGTTTCTC | 0.993
146 | CGCCTAGGAT | 1.04
147 | TTGTATGTTG | 0.993
148 | AGCGCTGAGT | 1.01
149 | CTCCTGGTTT | 1.25
150 | GCCCTACCGA | 1.09
151 | CTCCAAAAAG | 1.1
152 | GAGAGTTAGT | 1.01
153 | AGTGTCATGC | 0.948
